{"source": "patent US20260232828A1", "about": "“LIGAND-CYTOTOXICITY DRUG CONJUGATES AND PHARMACEUTICAL USES THEREOF” (HANSOH BIO LLC, priority 2023, published 2026)", "key": {"SW480": {"tested_on": "SW480", "experiment": "In vitro cytotoxicity of ADCs, SW480 (Cell Titer Glo)", "assay_type": "cell-based", "conditions": "Table 10; Celltiter Glo (7 days); CDH17 negative line; NA: IC50 not conclusive (no/low toxicity)", "protocol": "The ADC immunoconjugates, which had different antibodies targeting CDH17 with different internalization, were analyzed for this Example. CDH17-mediated cell toxicities by these conjugates were tested in cell culture to define the potency of various linker-cytotoxic agent combinations. Different types of cancer cell lines were tested, including colorectal cancer cell line GP2d, NCI-1H716, SK-CO-1, SNU16, ESO26 and SW480; pancreatic cancer cell line AsPC1.\nWe used two methods (Cell titer glo and Cytation5) to test the cytotoxicity of immunoconjugates in the above-listed cell lines. For the Cytation5 method, cells were collected in log phase growth and distributed into 96-well plates at 5000 cells/well with propidium iodide (abeam, Cat #ab14083) at 500 ng/mL and SPY650-DNA (Cytoskeleton, Inc., Cat #CYSC501) at 1:2000 dilution. Cells were incubated overnight at 37° C. in 5% CO2. The immunoconjugates were diluted with cell culture medium containing 500 ng/mL propidium iodide and 2000-fold diluted SPY650-DNA, then added to each well. The final concentrations of the immunoconjugates were ranging from 0.003 nM to 200 nM. Cytation5 (Agilent) was used to detect the viability of the cells in each well by imaging the plates every 12 h for 96 h. For Cell titer glo method. […] After 5 or 7 days of incubation, the cell viability in each well was determined by Cell Titer Glo 2.0 Assay (Promega). […]"}, "[1]": {"tested_on": "AsPC1 cells (pancreatic cancer) xenograft", "experiment": "Efficacy in human pancreatic cancer cell xenograft mouse model", "assay_type": "in vivo, female BALB/c nude mice", "conditions": "AsPC1 tumor-bearing mice, 6 mg/kg Q4D × 3 intravenously", "protocol": "AsPC1 cells (pancreatic cancer) were engrafted subcutaneously into female BALB/c nude mice. When the tumor volume reached approximately 150-200 mm^3, the engrafted mice were randomized into seven groups (5 mice per group). […] The mice were treated with ADCs (6 mg/kg) intravenously Q4D×3. […] The anti-CDH17 antibodies conjugated with compound C also have excellent tumor inhibition (Table 15 and FIG. 11)."}, "[2]": {"tested_on": "GP2d cells (colorectal cancer) xenograft", "experiment": "Efficacy in human colorectal cancer cell xenograft mouse model", "assay_type": "in vivo, female BALB/c nude mice", "conditions": "GP2d tumor-bearing mice, 6 mg/kg Q4D × 3 intravenously", "protocol": "GP2d cells (colorectal cancer) were engrafted subcutaneously into female BALB/c nude mice. When the tumor volume reached approximately 100-150 mm^3, the engrafted mice were randomized into seven groups (5 mice per group). […] The mice were treated with ADCs (6 mg/kg) intravenously Q4D×3. In terms of the in vivo efficacy, compared to PBS in the control group, all the ADC molecules have effects in inhibiting the increase of tumors in volume. […] The tumor volumes in ADC-11 group increased after around 30 days of 1st treatment. […] The anti-CDH17 antibodies conjugated with compound C also have an excellent tumor inhibition effect (Table 18, FIG. 12). ADCs conjugated to compound C with different DAR values have been compared in GP2d CDX model. Tumor inhibition has been observed in all the treatment groups."}, "[3]": {"parameters": "species or system Balb/c mice", "conditions": "mouse, in vivo, iv, 5 mg/kg", "protocol": "Human CDH17 His Tag protein (Sino biological, catalog number 11360-H08H) was coated onto the MSD bare standard plates (Meso Scale Discovery, catalog number L15XA-3) at a concentration of 4 μg/mL overnight in 4° C. The excess unbound proteins were washed off by PBST buffer and were blocked with 3% BSA in PBS buffer for 1 h at room temperature with a shaking speed of 700 rpm. After washing with PBST for 3 times, standard samples, QC samples, SC samples, and mouse serum samples were added to plates for 1 h incubation at room temperature with a shaking speed of 700 rpm. The final concentrations of the standard samples were ranging from 0.02 ng/mL to 1000 ng/mL. Quality control (QC) samples and sample control (SC) samples were diluted into 4 different concentrations (0.06 ng/ml, 0.244 ng/ml, 3.906 ng/mL, and 250 ng/mL). Mouse serum samples were also diluted to the detection range. The plates were then washed with PBST for 3 times and incubated with sulfo-tag conjugated anti-Fc antibody for 1 h at room temperature with shaking. Finally, 150 μL MSD GOLD Read Buffer B was added to each well and the plate was read by MESO […] (Meso Scale Discovery). The raw data was analyzed on MSD discovery workbench software and the AUC data of the total antibody from mouse serum was calculated by pK solver. The total antibody here is referring to the antibody from ADC, we test both total antibody and ADCs when doing the assay. All the ADC molecules have good pharmacokinetic properties. […] Similar administration, detection, and analysis methods were applied to ADC-21, ADC-24 and ADC-34. Balb/c mice (3 mice per group) were dosed at a concentration of 5 mg/kg by i.v. injection. Serum samples were collected at 13 time points: pre-bleed, 1 h, 4 h, 24 h, 2 day, 3 day, 5 day, 7 day, 9 day, 12 day, 14 day, 17 day and 21 day. MSD bare standard plates were coated at a concentration of 2 μg/mL for both total antibody and ADC PK detection. Quality control (QC) samples and sample control (SC) samples were diluted into 3 different concentrations (0.22 ng/ml, 3.52 ng/ml, and 225 ng/mL). […]"}, "[4]": {"parameters": "species or system Balb/c mice", "conditions": "in vivo, iv, 5 mg/kg", "protocol": "Human CDH17 His Tag protein (Sino biological, catalog number 11360-H08H) was coated onto the MSD bare standard plates (Meso Scale Discovery, catalog number L15XA-3) at a concentration of 8 μg/mL overnight in 4° C. The excess unbound proteins were washed off by PBST buffer and were blocked with 3% BSA in PBS buffer for 1 h at room temperature with a shaking speed of 700 rpm. After washing with PBST for 3 times, standard samples, QC samples, SC samples, and mouse serum samples were added to plates for 1 h incubation at room temperature with a shaking speed of 700 rpm. The final concentrations of the standard samples were ranging from 0.02 ng/mL to 1000 ng/mL. Quality control (QC) samples and sample control (SC) samples were diluted into 4 different concentrations (0.06 ng/ml, 0.244 ng/ml, 3.906 ng/mL, and 250 ng/mL). Mouse serum samples were also diluted to the detection range. The plates were then washed with PBST for 3 times and incubated with sulfo-tag conjugated anti-compound D antibody for 1 h at room temperature with shaking. Finally, 150 μL MSD GOLD Read Buffer B was added to each well and the plate was read by MESO […] (Meso Scale Discovery). The raw data was analyzed on MSD discovery workbench software and the AUC data of the ADC from mouse serum was calculated by pK solver. The total antibody here is referring to the antibody from ADC, we test both total antibody and ADCs when doing the assay. All the ADC molecules have good pharmacokinetic properties. […] Similar administration, detection, and analysis methods were applied to ADC-21, ADC-24 and ADC-34. Balb/c mice (3 mice per group) were dosed at a concentration of 5 mg/kg by i.v. injection. Serum samples were collected at 13 time points: pre-bleed, 1 h, 4 h, 24 h, 2 day, 3 day, 5 day, 7 day, 9 day, 12 day, 14 day, 17 day and 21 day. MSD bare standard plates were coated at a concentration of 2 μg/mL for both total antibody and ADC PK detection. Quality control (QC) samples and sample control (SC) samples were diluted into 3 different concentrations (0.22 ng/ml, 3.52 ng/ml, and 225 ng/mL). Sulfo-tag conjugated anti-Fc antibody and anti-payload antibody were used to detect the total antibodies and ADCs respectively."}}, "note": "Where two headings read alike, the source gives them in different places."}
{"molecule": "ADC-06 (conjugate) heavy: QITLKESGPTLVKPTQTLTLTCTFSGFSLSTSGVGVGWIRQPPGKALEWLALIYWNDDKRYRPSLKNRLTITKDTSKNQVVLTMTNMDPVDTATYYCTHYGVTAPFYNWFDPWGQGTLVTVSS[letters of human IgG1 constant region omitted] light: DIQMTQSPSSLSASVGDRVTITCRASQSITSYLNWYQQKPGKAPKLLIYAASSLQSGVPSRFSGSGSGTDFTLTISSLQPEDFATYYCQRSYSTLTFGGGTKVEIKRTVAAPSVFIFPPSDEQLKSGTASVVCLLNNFYPREAKVQWKVDNALQSGNSQESVTEQDSKDSTYSLSSTLTLSKADYEKHKVYACEVTHQGLSSPVTKSFNRGEC", "values": [{"measurement": "IC50", "setting": "SW480", "value": "> 100", "unit": "nM"}, {"measurement": "Tumor volume (mm3) Day 28", "setting": "[1]", "value": "177.8 ± 16.1", "unit": "mm3"}, {"measurement": "TGI Day 28", "setting": "[1]; 6 mg/kg", "value": 76.26, "unit": "%"}, {"measurement": "Tumor volume (mm3) Day 49", "setting": "[2]", "value": "364.0 ± 175.0", "unit": "mm3"}, {"measurement": "TGI Day 49", "setting": "[2]; 6 mg/kg", "value": 92.03, "unit": "%"}, {"measurement": "Cl_obs", "setting": "[3]", "value": "0.0010 (mg/kg)/(μg/ml)/h"}, {"measurement": "MRT 0-t", "setting": "[3]", "value": 41.7, "unit": "h"}, {"measurement": "Vss_obs", "setting": "[3]", "value": "0.06 (mg/kg)/(μg/ml)"}, {"measurement": "Vss_obs", "setting": "[4]; Balb/c, mouse", "value": "0.06 (mg/kg)/(μg/ml)"}, {"measurement": "mouse serum sample in which the ADC could be detected", "setting": "[4]", "value": 7, "unit": "days"}, {"measurement": "Cl_obs", "setting": "[4]; mouse", "value": "0.0011 (mg/kg)/(μg/ml)/h"}, {"measurement": "MRT 0-t", "setting": "[4]; mouse", "value": 38.4, "unit": "h"}]}
